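Test compounds were applied to cells in 96-well plates for 48 hours at 5 doses. TGI: concentration producing complete growth inhibition.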 Some entries of the source have several records that differ or are many. Only these are listed. An entry can have further records. Records of one sample usually come from different ranges of test concentrations, not given here; some values may only mark the edge of a range.
How the values were obtained:
SF-539 CNS = assay: DTP human tumour cell line panel, 48 h
SR leukemia = assay: DTP human tumour cell line panel, 48 h

In the case of `CCC1(O)C(=O)OCc2c1cc1n(c2=O)Cc2cc3ccc(C=O)cc3nc2-1` (configuration not stated), the TGI (SF-539 CNS) is reported as 50 µM and 2.83 µM and the TGI (SR leukemia) is reported as 477 nM and < 30.1 nM.

Reference: PubChem BioAssay (NCI)
